The supplement of paper PMC10126150
Sequences with one replicate were seen in a single cluster, so their values are uncertain.

Tested on: ATP
Experiment: switch fluorescence ratio, 500 uM ATP over buffer (Cy3 cluster intensity, sum of 5 cycles each) (fold (ratio)); higher = stronger signal-on switching upon ATP binding; sequences stand for … in TCGTCGGCAGCGTCAGATGTGTATAAGAGACAGTTTTTTTTTTTTTTTTTTTTTTTTT…TC
Conditions: aptamer strand: ATP DNA aptamer (quencher-CACCTGGGGGAGTATTGCGGAGGAAGG + anchor), 100 nM annealed; ATP concentration: 500 uM; one replicate
How it was run: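 Clusters with intensities outside 100-1000 RFU were excluded. The remaining Cy3-labelled switching-strand clusters on a modified Illumina MiSeq flow-cell had been annealed to 100 nM quencher-labelled ATP aptamer and imaged in selection buffer, then after 15 min with 500 uM ATP at 22 °C, for five cycles separated by NaOH stripping and re-annealing. The fluorescence ratio, averaged per switch-domain sequence, is each cluster's summed target-cycle Cy3 intensity over its summed buffer-cycle Cy3 intensity.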
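Also: ATP exposure 15 min at 22 °C before imaging.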

Row | Sequence | switch fluorescence ratio
1 | CATGGGGGT | 0.981
2 | CATGGGTCAA | 1.04
3 | CATGGGTCGC | 1.02
4 | CATGGTTAAT | 1.01
5 | CATGGTTCCT | 1
6 | CATGGTTGTC | 1.02
7 | CATGGTTTAA | 1.05
8 | CATGTACGGA | 1.1
9 | CATGTATCAG | 1
10 | CATGTTGAAC | 1.02
11 | CATGTTGAG | 1.01
12 | CATGTTGCCG | 1.01
13 | CATTACAGTC | 1.06
14 | CATTACCCGT | 1.05
15 | CATTACCCTT | 1.04
16 | CATTAGAGGA | 0.998
17 | CATTAGGGCC | 1.02
18 | CATTATAAAT | 0.973
19 | CATTATGTCA | 0.978
20 | CATTCATGGG | 1.01
21 | CATTCCAGAC | 1.6
22 | CATTCCCCGA | 1.24
23 | CATTCCCGGC | 1.14
24 | CATTCCGCGG | 1.99
25 | CATTCGCGGG | 1.02

Row | Sequence | switch fluorescence ratio
26 | CATTCGGCAG | 1.13
27 | CATTCTAAGA | 1
28 | CATTCTTGTG | 1.05
29 | CATTGAGCAT | 1.13
30 | CATTGGAGTG | 0.969
31 | CATTGGATAT | 0.996
32 | CATTGGCCGC | 1
33 | CATTGGGCTG | 0.976
34 | CATTGGTAGC | 0.997
35 | CATTGTAGCC | 0.973
36 | CATTTCGGAC | 1.06
37 | CATTTCTCTG | 1.08
38 | CATTTGACGA | 1.01
39 | CATTTTATTA | 1.03
40 | CATTTTCCCA | 1.02
41 | CATTTTGCTA | 0.955
42 | CATTTTTACT | 1.04
43 | CCAAAATAAG | 0.98
44 | CCAAAATCTC | 1.41
45 | CCAAAGGAAC | 1.07
46 | CCAACACATC | 1.26
47 | CCAACACGCC | 1.27
48 | CCAACAGGAG | 1.34
49 | CCAACGAAAA | 1
50 | CCAACGACTA | 1.57

Row | Sequence | switch fluorescence ratio
51 | CCAACGCAGG | 4.37
52 | CCAACTATTG | 0.965
53 | CCAACTTAAG | 0.946
54 | CCAAGAAGTT | 1.68
55 | CCAAGAATAT | 1.02
56 | CCAAGATTG | 1
57 | CCAAGGCATA | 3.77
58 | CCAAGGCTAG | 1.04
59 | CCAAGGCTCT | 1.03
60 | CCAAGGGTTA | 1.02
61 | CCAAGTATCG | 0.982
62 | CCAAGTGCCC | 1.02
63 | CCAATCCCTG | 1.06
64 | CCAATCGCAG | 3.43
65 | CCAATCGGCT | 1.02
66 | CCAATGTTTA | 0.999
67 | CCAATTAGGT | 1.03
68 | CCAATTCCAC | 1.07
69 | CCAATTCCTT | 0.995
70 | CCACAAGACC | 2.75
71 | CCACAAGCGC | 1.31
72 | CCACACGTT | 1.04
73 | CCACAGCATG | 2.16
74 | CCACCCACTC | 1.86
75 | CCACGAGAAG | 1.06

Row | Sequence | switch fluorescence ratio
76 | CCACGAGACG | 1.01
77 | CCACGCCCTA | 1.54
78 | CCACGCGTTT | 1.08
79 | CCACGGGAAA | 0.988
80 | CCACGTAAAT | 1.31
81 | CCACGTACGT | 1.71
82 | CCACTGGGGA | 1
83 | CCACTGGTCT | 1.03
84 | CCACTGGTTA | 1.02
85 | CCAGAACCCT | 1.08
86 | CCAGACAGTT | 0.982
87 | CCAGAGATGG | 1.01
88 | CCAGAGGTCG | 0.97
89 | CCAGAGTGGC | 1.34
90 | CCAGATTGTA | 0.984
91 | CCAGCGATGG | 1.16
92 | CCAGCTCTC | 1.14
93 | CCAGCTGGGC | 1.06
94 | CCAGGAAAAG | 1.02
95 | CCAGGACCCG | 0.989
96 | CCAGGGGACG | 1.13
97 | CCAGGGTATT | 1.01
98 | CCAGGTCCTC | 1.06
99 | CCAGGTTTCT | 1.05
100 | CCAGTAGCA | 1.39
